{
  "source": "patent US20260209265A1",
  "about": "(NAVIGO PROTEINS, published 2026)",
  "binders": {"B1": {"name": "228302 (SEQ ID NO: 18) (designed binder)", "chain": "AKFDEIAQAAFYEILHLPNLTEEQRHAFIQSLRDDPSVSKEILAEAKKLNDAQAPKIAAKFDEIAQAAFYEILHLPNLTEEQRHAFIQSLRDDPSVSKEILAEAKKLNDAQAPKIAAKFDEIAQAAFYEILHLPNLTEEQRHAFIQSLRDDPSVSKEILAEAKKLNDAQAPKIAAKFDEIAQAAFYEILHLPNLTEEQRHAFIQSLRDDPSVSKEILAEAKKLNDAQAPKIAAKFDEIAQAAFYEILHLPNLTEEQRHAFIQSLRDDPSVSKEILAEAKKLNDAQAPK", "notes": "also called 228302 pentamer"}, "B2": {"name": "224771 (SEQ ID NO: 10) (designed binder)", "chain": "AQFDKIQQIAFYEILHLPNLTEEQRHAFIQSLRDDPSVSKEILAEAKKLNDAQAPKIAAQFDKIQQIAFYEILHLPNLTEEQRHAFIQSLRDDPSVSKEILAEAKKLNDAQAPKIAAQFDKIQQIAFYEILHLPNLTEEQRHAFIQSLRDDPSVSKEILAEAKKLNDAQAPKIAAQFDKIQQIAFYEILHLPNLTEEQRHAFIQSLRDDPSVSKEILAEAKKLNDAQAPKIAAQFDKIQQIAFYEILHLPNLTEEQRHAFIQSLRDDPSVSKEILAEAKKLNDAQAPK", "notes": "also called 224771 pentamer"}, "B3": {"name": "224770 (SEQ ID NO: 9) (designed binder)", "chain": "B1 chain with K2Q, E5K, K60Q, E63K, K118Q, E121K, K176Q, E179K, K234Q, E237K", "notes": "also called 224770 pentamer"}, "B4": {"name": "224785 (SEQ ID NO: 12) (designed binder)", "chain": "B2 chain with I9A, I67A, I125A, I183A, I241A", "notes": "also called 224785 pentamer"}, "B5": {"name": "224772 (SEQ ID NO: 8) (designed binder)", "chain": "B2 chain with I9A, E13A, I67A, E71A, I125A, E129A, I183A, E187A, I241A, E245A", "notes": "also called 224772 pentamer"}},
  "note": "Where a chain is given by its changes, count along the chain named.",
  "data": [
    {"target": "Natalizumab (IgG4)", "sequence (VH, as listed by the source, chain 1 of 2)": "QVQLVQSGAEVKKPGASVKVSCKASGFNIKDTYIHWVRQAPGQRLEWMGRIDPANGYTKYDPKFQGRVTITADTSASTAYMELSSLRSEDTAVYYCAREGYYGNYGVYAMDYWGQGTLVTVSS", "sequence (VL, as listed by the source, chain 2 of 2)": "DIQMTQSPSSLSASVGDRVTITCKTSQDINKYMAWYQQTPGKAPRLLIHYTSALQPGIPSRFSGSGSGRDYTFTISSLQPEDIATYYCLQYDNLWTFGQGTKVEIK", "assay": "SPR (Bruker SPR-32, 25 C, Langmuir 1:1 model)", "units": {"Kd": "nM"}, "values": [
      {"binder": "B1", "Kd": 3.3},
      {"binder": "B2", "Kd": "< 0.5"},
      {"binder": "B3", "Kd": 3},
      {"binder": "B4", "Kd": "< 0.5"},
      {"binder": "B5", "Kd": "< 0.5"}
    ]},
    {"target": "T1, Panitumab (IgG2)", "T1 construct": "also called hIgG2", "assay": "SPR (Bruker SPR-32, 25 C, Langmuir 1:1 model)", "units": {"Kd": "nM"}, "values": [
      {"binder": "B1", "Kd": 24},
      {"binder": "B2", "Kd": 2},
      {"binder": "B3", "Kd": 9.1},
      {"binder": "B4", "Kd": 1.7},
      {"binder": "B5", "Kd": "< 0.5"}
    ]},
    {"target": "T2, Octagam (IgG sample)", "T2 construct": "also called hIgG", "assay": "dynamic binding capacity at 10% breakthrough; ligand coupled to agarose beads, Octagam 2.2 mg/ml loaded", "units": {"DBC10% 6 min residence time": "mg/mL"}, "values": [
      {"binder": "B2", "DBC10% 6 min residence time": 63},
      {"binder": "B3", "DBC10% 6 min residence time": 60},
      {"binder": "B4", "DBC10% 6 min residence time": 61},
      {"binder": "B5", "DBC10% 6 min residence time": 65}
    ]},
    {"target": "T2, Octagam (IgG sample)", "assay": "DBC10 of the immobilized ligand after 50 h in 1 M NaOH, in % of the DBC10 at 0 h; Octagam loaded, 6 min residence time", "units": {"Remaining IgG binding capacity after 50 h, 1 M NaOH (%)": "%"}, "values": [
      {"binder": "B2", "Remaining IgG binding capacity after 50 h, 1 M NaOH (%)": 66},
      {"binder": "B3", "Remaining IgG binding capacity after 50 h, 1 M NaOH (%)": 74},
      {"binder": "B4", "Remaining IgG binding capacity after 50 h, 1 M NaOH (%)": 63},
      {"binder": "B5", "Remaining IgG binding capacity after 50 h, 1 M NaOH (%)": 80}
    ]},
    {"target": "T2, Octagam (IgG sample)", "assay": "step pH elution with 0.1 M acetic acid of hIgG (Octagam) bound to the immobilized ligand; percent of the bound IgG released at pH 3.7", "units": {"Amount eluted IgG pH 3.7 (%)": "%"}, "values": [
      {"binder": "B2", "Amount eluted IgG pH 3.7 (%)": 3},
      {"binder": "B3", "Amount eluted IgG pH 3.7 (%)": 0},
      {"binder": "B4", "Amount eluted IgG pH 3.7 (%)": 6},
      {"binder": "B5", "Amount eluted IgG pH 3.7 (%)": 3}
    ]},
    {"target": "T2, Octagam (IgG sample)", "assay": "step pH elution with 0.1 M acetic acid of hIgG (Octagam) bound to the immobilized ligand; percent of the bound IgG released at pH 4.0", "units": {"Amount eluted IgG pH 4.0 (%)": "%"}, "values": [
      {"binder": "B2", "Amount eluted IgG pH 4.0 (%)": 97},
      {"binder": "B3", "Amount eluted IgG pH 4.0 (%)": 100},
      {"binder": "B4", "Amount eluted IgG pH 4.0 (%)": 94},
      {"binder": "B5", "Amount eluted IgG pH 4.0 (%)": 97}
    ]}
  ]
}
